The text below walks through data of PubChem BioAssay AID1963576 (National Center for Advancing Translational Sciences (NCATS), 2024).

SMILES strings stand for the structures. Hit rate of the full screen: of about 46,000 compounds, about 60 (0.1%) were called active. About 3% were inconclusive and are not listed. The call rests on the fitted dose curve; in most records, active means well fitted inhibition curve with a large enough effect; inconclusive means small, poorly fitted or top-dose-only effect; inactive means no such curve, though single readings can be large or run the other way. The list shows a part of the results.

The experiment in a line: Primary qHTS assay for Inhibitors of ovarian cancer metastasis using an organotypic tumor microenvironment (TME) model. Further: nearly all actives have a fitted effect of over 65% in size.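 On activity change, negative = inhibition: plate controls were DMSO wells for no effect and tomatine positive control wells for full effect.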 The settings on record: SKOV3ip1-GFP adhesion/invasion on 3D omental model, fluorescence; series mostly up to 45.8 µM; activity change, negative = inhibition: at the top concentration. The procedure, abridged:
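A 3D layer of primary human omental fibroblasts, mesothelial cells, fibronectin and collagen I, grown 48 hr, received SKOV3ip1-GFP cells in serum-free medium plus compounds at 0.36-46 umol/L. After 2 hr RT and 16 hr 37 C, fixed adherent GFP cells were counted; normalized to DMSO and tomatine.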
In the case of `CCCNc1ccc(-c2nc(-c3ccncc3)no2)cc1[N+](=O)[O-]`, the “activity change, negative = inhibition” value is inactive: -5.74%. Turning to `CCn1c(SCc2ccccc2F)nc(=O)c2c(C(=O)OC)cc(C3CC3)nc21`, the result was inactive.

In the case of `Cc1ccc(C)c(N2CCN(C(=O)c3ccc4[nH]c(C)c(C)c4c3)CC2)c1`, the molecule was classed as inactive. Turning to `CCCC(CCC)C(=O)Nc1cccc(-c2cn3cccnc3n2)c1`, the “activity change, negative = inhibition” value was inactive: -6.34%.

Regarding `CCOC(=O)C1CCCN(C(=O)Cn2ncc3c([nH]c4ccc(C)cc43)c2=O)C1` (centres undefined), the “activity change, negative = inhibition” value is inactive: 4.46%. Still for that read-out and setting: to `COc1cc2[nH]c(=O)n(CCCC(=O)NCc3ccccc3)c(=O)c2cc1OC` belongs inactive: 9.23%; to `CCc1ccc(NC(=O)CCCc2nc(-c3ccco3)no2)cc1`, inactive: 0.643%; to `O=C(Nc1ccc2nc(SCC(=O)N3CCCC3)sc2c1)c1ccccc1F`, inactive: -4.87%. `COc1ccccc1CNC(=O)CN1C(=O)CCc2cc(S(=O)(=O)N3CCOCC3)ccc21`: the “activity change, negative = inhibition” value is inactive: -9.84%. The same measure, in the same setting: to `COc1ccc(CNC(=O)c2c(Nc3ccccc3C)sc(C(=O)c3ccccc3)c2N)cc1` belongs inactive: -1.18%; to `Cc1ccc(OCc2nc(-c3ccc(C(=O)NCCc4ccc(S(N)(=O)=O)cc4)cc3)oc2C)cc1`, inactive: 5.11%.

As to `COC(=O)c1c(NC(=O)CCCOc2ccccc2C)sc2c1CCC(C)C2` (centres undefined), the “activity change, negative = inhibition” value is inactive: 2.18%. Still for that read-out and setting: to `CCOC(=O)c1sc2ccccc2c1S(=O)(=O)N1CCN(c2ccccc2)CC1` belongs inactive: -2.12%; to `O=C(CSc1nc(-c2cccs2)nc2cc(=O)[nH]n12)Nc1ccc(F)cc1`, inactive: 2.35%; to `CCOc1ccc(NC(=O)CNS(=O)(=O)c2ccc(Br)s2)cc1`, inactive: -27%. The same measure, in the same setting: to `COc1ccc(NC(=O)c2cc(-c3ccccc3O)no2)cc1` belongs inactive: 1.35%; to `CC1CN(C(=O)N2CCC(C(=O)NCc3ccco3)CC2)c2cc(Cl)ccc2O1` (centres undefined), inactive: -7.34%. On to `Cc1ccc(NC(=O)CN2C(=O)CCc3cc(S(=O)(=O)N4CCCCC4)ccc32)cc1N(C)C`, for which the call was inactive. As to `CC(C)c1ccc(NC(=O)CSc2nc(=O)n(Cc3cccnc3)c3c2CCC3)cc1`, the “activity change, negative = inhibition” value was inactive: -10%. Regarding `CCCCN(CCCC)CCNC(=O)c1cc(=O)[nH]c2ccc(S(=O)(=O)N3CCCCCC3)cc12`, the result was inactive. Still for that read-out and setting: to `Cc1ccc(CNC(=O)C2CCCN(S(=O)(=O)c3ccc4c(ccn4C)c3)C2)cc1` (centres undefined) belongs “inactive”. For the molecule `CN1CCN(C(=O)Nc2cccc(Cl)c2)c2cccnc21`, the “activity change, negative = inhibition” value was inactive: 5.92%. Still for that read-out and setting: to `CCOc1ccccc1NC(=O)CSc1nc2c(oc3ccccc32)c(=O)n1Cc1ccco1` belongs inactive: 8.2%; to `CCOC(=O)c1cnc2c(C(F)(F)F)cccc2c1Nc1cccc(C(=O)OC)c1`, inactive: -2.9%; to `CCc1cnc2c(c1SCC(=O)Nc1cc(Cl)ccc1OC)c(=O)n(C)c(=O)n2C`, inactive: 2.61%. Regarding `COc1ccc(-c2noc(CSc3nnc(-c4ccc(Cl)cc4)n3C)n2)cc1OC`, the molecule was classed as inactive.

For `COc1ccc(CCNC(=O)Cn2cc(S(=O)(=O)Cc3cccc(Cl)c3)c3ccccc32)cc1OC`, the “activity change, negative = inhibition” value is inactive: -4.85%.

As to `Cc1ccc(Cl)cc1NC(=O)CSc1nc(C)c(C)c(C)c1C#N`, the molecule was classed as inactive. For `O=C(NC1CCCC1)c1ccc2c(c1)N(Cc1ccccc1Cl)C(=O)c1ccccc1S2`, the “activity change, negative = inhibition” value is inactive: -2.58%.

For the molecule `Cc1cc(C)c(NC(=O)CSc2ncc(S(=O)(=O)c3ccc(C(C)(C)C)cc3)c(=O)[nH]2)c(C)c1`, the molecule was called inactive. `CCc1ccc(CNC(=O)C2CCN(C(=O)N3CC(CC)Oc4ccc(C)cc43)CC2)cc1` (centres undefined): the “activity change, negative = inhibition” value was inactive: 3.66%.

As to `COc1cc(OC)c(NC(=O)c2c3c(nn2C)-c2ccccc2SC3)cc1Cl`, the result was inactive. Regarding `COc1ccccc1OCC(O)CN1CCN(CC(=O)Nc2c(C)cccc2C)CC1` (centres undefined), the “activity change, negative = inhibition” value was inactive: -2.28%.

As to `Cc1ccn2c(=O)c(C(=O)NCc3ccccc3Cl)c(O)nc2c1`, the “activity change, negative = inhibition” value was inactive: 5.53%. The same measure, in the same setting: to `CCOC(=O)c1c(N)n(-c2cccc(C)c2C)c2nc3ccccc3nc12` belongs inactive: -16%; to `CCc1ccccc1Nc1nn2c(=O)c3ccc(C(=O)NC4CCCCC4)cc3nc2s1`, inactive: -10.2%.

As for `Cc1ccc(N2CC(NC(=O)C3CCCCC3)CC2=O)cc1C` (centres undefined), the call was inactive. As to `CC1(C(=O)Nc2ncc(Cc3ccc(Br)cc3)s2)Cc2ccccc2C(=O)O1` (centres undefined), the molecule was classed as inactive. Still for that read-out and setting: to `COc1cccc2c1Oc1ncccc1N(c1ccc(C(=O)NCc3cccc(C)c3)s1)C2` belongs “inactive”. `COc1ccc(S(=O)(=O)Nc2cccc(-c3ccc(N4CCCCCC4)nn3)c2)c(OC)c1`: the “activity change, negative = inhibition” value is inactive: 3.98%. Still for that read-out and setting: to `COC(=O)C(CCSC)NC(=O)c1cc2c(n(-c3ccc(OC)cc3)c1=O)CC(C)(C)CC2=O` (centres undefined) belongs inactive: 20%. On to `CCOc1ccc(NS(=O)(=O)c2ccc3nc(-c4ccccc4)[nH]c3c2)cc1`, for which the molecule was called inactive. Regarding `Cc1ccccc1-c1nnc(SCC(=O)N2CCCCC2)o1`, the “activity change, negative = inhibition” value was inactive: -5.82%. Turning to `CCN(c1ccccc1)S(=O)(=O)c1nnc(NC(=O)c2ccco2)s1`, the “activity change, negative = inhibition” value is inactive: -0.387%. Take `COc1cc(OC)c(Nc2c3c(nc4nc(-c5cccs5)nn24)CCCC3)cc1Cl`: the “activity change, negative = inhibition” value was inactive: 1.1%.

Turning to `O=C(Nc1cccc2c(=O)cc(-c3nn[nH]n3)oc12)c1ccc(OCCCCc2ccccc2)cc1`, the “activity change, negative = inhibition” value was inactive: -12.2%. Still for that read-out and setting: to `COc1ccc(-c2nc3scc(CCNC(=O)Cc4ccc(F)cc4)n3n2)cc1` belongs inactive: 2.05%.

On to `CCC(C)NC(=O)c1ccc2nc(Cc3ccccc3)oc2c1` (centres undefined), for which the “activity change, negative = inhibition” value is inactive: 1.22%. For `COc1cc(CN(C(=O)COc2ccc(Cl)c(C)c2)c2ccccn2)cc(OC)c1OC`, the “activity change, negative = inhibition” value is inactive: -2.58%.
